“And” between values parts separate entries of the source, which are not always exact repeats. Identical values can stand only once. Among all 390,000 compounds or so, about 17,000 (4.4%) were called active. Inconclusive means that the source gave no clear call. Such entries were picked first, then a sample of the others. Calls follow the shape of the dose curve; as a rule, active = well fitted inhibition curve with a large enough effect; inconclusive = small, poorly fitted or top-dose-only effect; inactive = no such curve, though single readings can be large or run the other way. Potencies of inconclusive entries are doubtful fits and often do not repeat.
target: Lysine-specific demethylase 4A (Homo sapiens) (UniProt O75164); assay: qHTS Assay for Inhibitors of JMJD2A-Tudor Domain; settings: AlphaScreen JMJD2A-Tudor / H3K4me3 peptide binding; series mostly up to 114 µM; also: nearly all actives have a fitted effect of over 50% in size
Sequence of UniProt O75164 (O75164 whole entry, looked up, the tested form may be a part): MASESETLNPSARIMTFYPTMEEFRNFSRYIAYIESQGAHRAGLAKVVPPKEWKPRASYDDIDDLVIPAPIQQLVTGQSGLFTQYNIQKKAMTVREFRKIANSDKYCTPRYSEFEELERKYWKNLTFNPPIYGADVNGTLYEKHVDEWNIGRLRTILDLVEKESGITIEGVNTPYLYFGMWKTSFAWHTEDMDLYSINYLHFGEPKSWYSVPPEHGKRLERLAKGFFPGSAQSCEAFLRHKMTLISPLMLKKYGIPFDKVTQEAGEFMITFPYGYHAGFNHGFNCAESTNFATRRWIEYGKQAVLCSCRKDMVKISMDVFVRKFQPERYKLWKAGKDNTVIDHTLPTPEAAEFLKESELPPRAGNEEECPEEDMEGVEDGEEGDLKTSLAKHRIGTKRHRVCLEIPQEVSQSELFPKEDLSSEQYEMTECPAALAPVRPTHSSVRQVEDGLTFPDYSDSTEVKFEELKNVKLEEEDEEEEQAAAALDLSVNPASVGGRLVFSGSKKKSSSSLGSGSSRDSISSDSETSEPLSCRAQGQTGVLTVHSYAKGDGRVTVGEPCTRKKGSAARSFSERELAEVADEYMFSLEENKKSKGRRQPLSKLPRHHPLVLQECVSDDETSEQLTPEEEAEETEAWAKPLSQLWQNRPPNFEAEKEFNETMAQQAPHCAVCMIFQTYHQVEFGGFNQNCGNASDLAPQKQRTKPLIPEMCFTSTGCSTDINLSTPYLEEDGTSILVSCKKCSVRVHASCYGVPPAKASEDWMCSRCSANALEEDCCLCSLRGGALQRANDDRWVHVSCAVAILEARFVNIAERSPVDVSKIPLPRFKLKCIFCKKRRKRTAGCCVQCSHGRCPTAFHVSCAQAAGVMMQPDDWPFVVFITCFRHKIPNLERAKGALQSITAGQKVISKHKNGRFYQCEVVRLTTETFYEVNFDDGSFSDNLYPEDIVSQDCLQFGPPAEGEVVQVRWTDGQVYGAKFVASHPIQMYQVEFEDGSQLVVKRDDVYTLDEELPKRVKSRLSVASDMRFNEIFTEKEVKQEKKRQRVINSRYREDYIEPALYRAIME
Potency is read from the fitted curve at half-maximal effect; tags tell the direction and shape of the fitted curve.

Row | Compound | Potency
1 | CN(C)CCCOc1ccc(C(C)(C)c2ccccc2)cc1 | active: 1.58 µM
2 | CC1=C(C#N)C(=O)NC(=O)/C1=C\c1ccc(-c2ccc(C)cc2[N+](=O)[O-])o1 | active: 31.6 µM
3 | CCOC(=O)c1c(-c2ccc(C)o2)csc1NC(=O)CN1CCOCC1 | inconclusive: 56.2 µM [inhibitor, partial curve]
4 | Cc1cccc(N2CCN(C(=O)Cn3nc(Cc4cccnc4)c4ccccc4c3=O)CC2)c1C | inconclusive: 12.6 µM [inhibitor, full curve]
5 | Clc1cccc(-n2ncc3c(NCCCn4ccnc4)ncnc32)c1 | inconclusive: 44.7 µM [inhibitor, partial curve]
6 | COc1ccc(C2NC(=S)NC3=C2CCc2cc(OC)ccc23)cc1 (stereo not drawn) | inconclusive: 56.2 µM [inhibitor, partial curve]
7 | CC(/C=C1\SC(=S)N(NS(=O)(=O)c2ccccc2)C1=O)=C\c1ccccc1 | inconclusive: 39.8 µM [inhibitor, partial curve]
8 | O=C(CN1CCN(S(=O)(=O)c2cc(Cl)ccc2Cl)CC1)c1ccc(O)c(O)c1 | inconclusive: 22.4 µM [inhibitor, full curve]
9 | CC(C)C1C(C#N)=C(N)Oc2n[nH]c(-c3ccc4ccccc4c3)c21 (stereo not drawn) | inconclusive: 50.1 µM [inhibitor, partial curve]
10 | O=C(c1cccc(Cl)c1)C1CCCN(Cc2ccc(N3CCNC3=O)cc2)C1 (stereo not drawn) | inconclusive: 89.1 µM [inhibitor, partial curve]
11 | CC(C)(C)c1ccc(-c2nc(SCC(=O)Nc3ccccc3F)n3[nH]c(=O)cc3n2)cc1 | inactive
12 | Cc1nn(C)cc1-c1n[nH]c(=S)n1-c1ccc(Cl)cc1 | active: 3.16 µM
13 | COc1cc(NC(=O)C2CCCN(S(=O)(=O)c3cccc4nsnc34)C2)cc(OC)c1 (stereo not drawn) | inconclusive: 79.4 µM [inhibitor, partial curve]
14 | CCC(C)NCCOCCOc1ccc(Br)cc1 (stereo not drawn) | active: 11.2 µM
15 | Cc1nc(NC(=O)c2ccccc2)sc1-c1csc(NCc2ccccc2)n1 | inconclusive: 3.55 µM [inhibitor, single point]
16 | COC1=C/C(=C/c2c(O)c(C#N)c3ccccn23)C=CC1=O | active: 22.4 µM
17 | COc1ccc(O)c(C2Nc3ccccc3C(=O)N2Cc2ccccc2)c1 (stereo not drawn) | active: 79.4 µM
18 | CCC(c1nnnn1CCOC)N1CCN(Cc2ccccc2OC)CC1 (stereo not drawn) | inconclusive: 22.4 µM [inhibitor, full curve]
19 | NS(=O)(=O)c1ccc(-c2ccc(/C=C3\SC(=S)N(C4CCS(=O)(=O)C4)C3=O)o2)cc1 (stereo not drawn) | inactive
20 | CCN1CCc2nc3sc(C(=O)c4ccc(F)cc4)c(N)c3cc2C1 | inconclusive: 44.7 µM [inhibitor, partial curve]
21 | Cc1nc(-n2[nH]c3c(c2=O)CCCC3)[nH]c(=O)c1Cc1ccccc1 | inconclusive: 79.4 µM [inhibitor, partial curve]
22 | CCOC(=O)c1ccc(-n2[nH]c(-c3ccccc3)cc2=O)cc1 | inconclusive: 31.6 µM [inhibitor, partial curve]
23 | COc1ccc(NC(=O)c2c(NCc3cccc(OC)c3)sc3c2CCCC3)cc1 | inconclusive: 39.8 µM [inhibitor, partial curve]

Row | Compound | Potency
24 | CCCOc1cccc(-c2nn(-c3ccccc3)cc2/C=C(\C#N)C(=O)NCCCn2ccnc2)c1 | active: 44.7 µM
25 | CCc1nnc(NC(=O)C2CC(=O)N(c3ccc4c(c3)OCCO4)C2)s1 (stereo not drawn) | active: 25.1 µM
26 | CCc1ccc(S(=O)(=O)/N=C2\C=C(Nc3ccc(C(=O)O)cc3)C(=O)c3ccccc32)cc1 | active: 28.2 µM
27 | Cc1ccc(C)c(Cn2nnc3c(=O)[nH]c(C(=O)NCc4ccco4)nc32)c1 | inconclusive: 15.8 µM [inhibitor, partial curve]
28 | CC(=O)Nc1nc2n(n1)C(c1ccccc1)C=C(c1ccccc1)N2 (stereo not drawn) | active: 89.1 µM
29 | Oc1ccc2ccccc2c1C=NC12CN3CCN(CN(C3)C1)C2 | active: 79.4 µM
30 | Cc1ccc2c(c1)C(O)(c1c(C)[nH]c3ccccc13)C(=O)N2 (stereo not drawn) | inconclusive: 79.4 µM [inhibitor, partial curve]
31 | CC(C)OC(=O)C(C)Nc1ccc(F)c(Cl)c1 (stereo not drawn) | inactive
32 | CNC(C)C(=O)NC(C(=O)N1CCCC1C(=O)NNc1ccccc1)C(C)C (stereo not drawn) | inconclusive: 100 µM [inhibitor, partial curve]
33 | CC1CCC/C(=N\NC(=O)Nc2ccccc2)C1 (stereo not drawn) | inactive
34 | O=C(O)c1cccc(N/N=C/c2cccnc2)c1 | inactive
35 | COC1=C(Nc2ccc(O)cc2)C(=O)c2ccccc2C1=O | active: 44.7 µM
36 | CCCC1=NN2C(=N)/C(=C\c3cc(C)n(-c4cc(C)cc(C)c4)c3C)C(=O)N=C2S1 | inconclusive: 31.6 µM [inhibitor, full curve, poor fit]
37 | COc1ccc(-c2cc3nc(CCl)[nH]c(=O)c3s2)cc1 | inconclusive: 89.1 µM [inhibitor, single point]
38 | Cc1sc(-n2c(C)cc(/C=C3\SC(=S)NC3=O)c2C)c(C#N)c1C | active: 39.8 µM
39 | Cc1cc(C(C)(C)C)ccc1OCCN1CCCC1 | active: 8.91 µM
40 | CCCc1cc(=O)oc2cc(OCC(=O)Nc3ccc(S(N)(=O)=O)cc3)ccc12 | inactive
41 | CC1CCN(S(=O)(=O)c2ccc3c(ccn3CCC(=O)NCc3ccc(N(C)C)cc3)c2)CC1 | inconclusive: 25.1 µM [inhibitor, full curve]
42 | Cc1sc2ncn(CC(=O)NCCCC(=O)N(C)Cc3ccccc3)c(=O)c2c1C | inconclusive: 25.1 µM [inhibitor, single point]
43 | NC1=NC(=O)C(c2ccccc2)(c2ccccc2)S1 | inactive
44 | Cc1ccccc1NC1=C(C(=O)c2ccccc2)N(C)S(=O)(=O)c2ccccc21 | inconclusive: 12.6 µM [inhibitor, full curve]
45 | Cc1cc2c(cc1C)C(=O)NC(C)(C)C2 | inactive
46 | O=C(N/N=C/c1ccc(N2CCOCC2)o1)c1cccc(F)c1 | inconclusive: 89.1 µM [inhibitor, single point]

Row | Compound | Potency
47 | CC1(C)CC(=O)C2=C(C1)Nc1cc3c(cc1C2c1ccc2c(c1)OCO2)OCO3 (stereo not drawn) | inconclusive: 39.8 µM [inhibitor, partial curve]
48 | Cc1cc(/C=C2/NC(=O)N(c3ccccc3)C2=O)c(C)n1C(C)C | inconclusive: 14.1 µM [inhibitor, partial curve, poor fit]
49 | COc1ccc(S(=O)(=O)NCC(c2ccco2)N2CCN(c3ccc(F)cc3)CC2)cc1C (stereo not drawn) | inconclusive: 12.6 µM [inhibitor, full curve, poor fit]
50 | Cc1ccc(OCC(O)CN2CCN(Cc3ccc4c(c3)OCO4)CC2)c(C)c1 (stereo not drawn) | inconclusive: 56.2 µM [inhibitor, partial curve] and inconclusive: 50.1 µM [inhibitor, full curve, poor fit]
51 | Cc1cccc(NC(=S)NCCC(c2ccccc2)c2ccccc2)c1 | inconclusive: 22.4 µM [inhibitor, single point]
52 | COc1cccc(-n2c(SCC(=O)Nc3cc(C)on3)nc3c([nH]c4ccccc43)c2=O)c1 | inactive
53 | CC1CC1C(=O)OCC(=O)NNC(=O)COc1ccc(Br)cc1 (stereo not drawn) | inactive
54 | COc1cc(C(=O)NCCC(=O)N2CCN(C)CC2)cc(OC)c1OC | inconclusive: 31.6 µM [inhibitor, partial curve]
55 | Cc1ccc(N2C(=O)c3ccccc3C2(O)c2ncc[nH]2)cc1 (stereo not drawn) | inconclusive: 25.1 µM [inhibitor, single point]
56 | COc1ccc(-c2onc(C)c2C)cc1S(=O)(=O)NCC1CCN(Cc2cc(C)ccc2C)CC1 | inconclusive: 56.2 µM [inhibitor, partial curve]
57 | COC(=O)c1ccc(OCCCCN(C)Cc2ccccc2)cc1 | active: 31.6 µM
58 | Cc1ccccc1N=Nc1c(O)[nH]c2ccccc12 | inconclusive: 89.1 µM [inhibitor, single point]
59 | CN(C)c1ccc(/C=C(/C(=O)c2ccc(Cl)cc2Cl)n2cncn2)cc1 | inconclusive: 44.7 µM [inhibitor, partial curve]
60 | CN(C(=O)c1cccc(NC(=O)Cc2ccc([N+](=O)[O-])cc2)c1)C1CCCCC1 | inconclusive: 3.98 µM [inhibitor, full curve, poor fit]
61 | CCc1ccc(N=C2NC(=O)/C(=C/c3ccc(OCC(=O)O)cc3)S2)cc1 | inconclusive: 56.2 µM [inhibitor, partial curve]
62 | CCCCCc1nc2sc3c(c2c(=O)n1NC(=O)c1ccc([N+](=O)[O-])cc1)CC(C)(C)OC3 | inconclusive: 22.4 µM [inhibitor, full curve]
63 | O=C(CSc1nnc(-c2ccccn2)n1Cc1ccco1)Nc1ccc2c(c1)OCO2 | inconclusive: 70.8 µM [inhibitor, partial curve, poor fit]
64 | COc1ccc2c(c1)C=C(CN1CCC(CO)(CCc3ccccc3)CC1)CO2 | inconclusive: 50.1 µM [inhibitor, partial curve]
65 | Cc1nn2c(C)c(C(=O)Nc3ccccc3)cnc2c1-c1ccccc1 | inactive
66 | Cc1ccccc1N(C(=O)CNC(=O)c1ccco1)C(C(=O)NC1CCCCC1)c1ccncc1 (stereo not drawn) | inactive
67 | CCN(CC)CCCN(C(=O)c1ccco1)c1nc(-c2ccc(C)cc2)cs1 | inconclusive: 44.7 µM [inhibitor, partial curve]
68 | O=C(CC1(O)C(=O)N(C/C=C/c2ccccc2)c2ccccc21)c1ccccn1 (stereo not drawn) | inconclusive: 56.2 µM [inhibitor, partial curve]

Source: PubChem BioAssay AID504339 (National Center for Advancing Translational Sciences (NCATS), 2011)
